Source: PMC4336329 (PLoS ONE, 2015)
In all, about 310,000 compounds went through this assay and about 14,000 (4.5%) showed an effect of 50% or more. The effect is printed as a negative number. The list shows a part of the results.

These compounds were tested against human ether-à-go-go-related gene (hERG) potassium channel (human, UniProt Q12809) (assay: primary screen, population patch clamp on CHO cells stably expressing hERG).
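Note: peak tail current of the secondary pulse compared with the same well before compound.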

Sequence of human ether-à-go-go-related gene (hERG) potassium channel (Q12809 whole entry, looked up): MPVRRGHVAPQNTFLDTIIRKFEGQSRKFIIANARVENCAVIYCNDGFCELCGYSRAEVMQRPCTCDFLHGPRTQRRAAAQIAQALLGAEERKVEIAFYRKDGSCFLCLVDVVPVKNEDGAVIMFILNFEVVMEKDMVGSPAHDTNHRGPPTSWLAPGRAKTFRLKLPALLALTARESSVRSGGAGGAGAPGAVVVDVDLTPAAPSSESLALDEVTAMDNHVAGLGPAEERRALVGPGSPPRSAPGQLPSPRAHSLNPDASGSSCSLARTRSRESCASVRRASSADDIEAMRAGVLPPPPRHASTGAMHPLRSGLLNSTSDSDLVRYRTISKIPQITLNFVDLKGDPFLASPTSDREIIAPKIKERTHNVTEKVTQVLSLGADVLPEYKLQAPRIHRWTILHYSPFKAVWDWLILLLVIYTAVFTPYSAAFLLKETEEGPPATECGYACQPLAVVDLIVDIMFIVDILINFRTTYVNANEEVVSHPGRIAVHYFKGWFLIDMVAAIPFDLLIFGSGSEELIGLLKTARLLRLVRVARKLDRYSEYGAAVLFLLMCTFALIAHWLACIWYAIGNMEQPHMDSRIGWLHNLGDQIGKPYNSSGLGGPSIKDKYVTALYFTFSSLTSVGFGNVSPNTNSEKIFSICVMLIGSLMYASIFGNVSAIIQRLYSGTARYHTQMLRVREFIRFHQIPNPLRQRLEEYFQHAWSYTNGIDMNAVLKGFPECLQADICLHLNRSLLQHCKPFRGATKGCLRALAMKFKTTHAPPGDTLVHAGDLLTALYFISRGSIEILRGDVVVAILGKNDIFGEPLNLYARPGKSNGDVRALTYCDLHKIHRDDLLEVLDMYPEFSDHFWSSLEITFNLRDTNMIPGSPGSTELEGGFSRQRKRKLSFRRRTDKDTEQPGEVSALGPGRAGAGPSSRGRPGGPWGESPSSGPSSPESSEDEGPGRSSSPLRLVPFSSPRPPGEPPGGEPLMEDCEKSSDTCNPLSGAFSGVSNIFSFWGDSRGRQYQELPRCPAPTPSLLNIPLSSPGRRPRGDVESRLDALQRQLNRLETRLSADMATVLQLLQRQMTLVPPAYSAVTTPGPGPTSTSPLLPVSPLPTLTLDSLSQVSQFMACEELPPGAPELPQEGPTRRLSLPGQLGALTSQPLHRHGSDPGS

Compound | hERG current change (%, negative = inhibition) at 10uM
CCCCC(=O)N(c1ccc(OC)cc1)C1C=CS(=O)(=O)C1 (stereo not shown) | 7.86%
CCN1C(=O)/C(=C/c2c(C)nn(C)c2C)SC1=S | -12.9%
COc1ccccc1/C=C1\SC(=S)N(CCC(=O)NC2=NCCS2)C1=O | 21.2%
Cl.N=c1sccn1CC(=O)N1N=C(c2ccc(Cl)cc2)CC1c1ccco1 (stereo not shown) | -79.5%
COc1ccc(Cl)cc1NC(=O)c1nc2nc(C)cc(C(F)F)n2n1 | 2.44%
Cn1cccc1/C=C1/C(=O)NC(=O)N(Cc2ccccc2)C1=O | 8.75%
Cc1ccc(CS(=O)(=O)Cc2ccc(C(=O)NC3CCCC3)o2)cc1 | -6.12%
COCC(=O)N1CCN(c2ccc([N+](=O)[O-])cc2)CC1 | -62.7%
Cc1c(C(=O)NC(=S)Nc2ccc(NC(=O)c3cccs3)cc2)oc2ccccc12 | -3.23%
Cc1ccccc1OC1C(=O)N(Cc2ccc3c(c2)OCO3)C1c1sccc1C (stereo not shown) | 4.77%
C=CCNC(=O)CCCCCNS(=O)(=O)c1ccc(OC)cc1 | -1.2%
O=C(NN1CCOCC1)c1ccccc1F | 13.9%
O=C(C1CCN(S(=O)(=O)Cc2ccccc2)CC1)N1CCCc2ccccc21 | -24.1%
Cc1cccc(N2CCN(S(=O)(=O)c3ccc(-c4cc(C)no4)s3)CC2C)c1 (stereo not shown) | 20.7%
Cc1c(C(=O)/C=C/N(C)C)nnn1-c1ccc(Cl)cc1Cl | 14.2%
C=CCN(CC=C)S(=O)(=O)c1ccc(C(=O)Nc2nnc(CSC)o2)cc1 | 5.45%
COc1ccc(OC)c(/C=C2\N=C(c3ccccc3)OC2=O)c1 | 15.4%
CCN1CCN(Cc2ccc(NC(=O)c3ccc(C)c(NC(=O)c4cc(-c5ccc(Br)cc5)n[nH]4)c3)cc2C(F)(F)F)CC1 | 11.9%
COc1ccc(CC(=O)N2CCc3cc(OC)c(OC)cc3C2O)cc1OC (stereo not shown) | 8.05%
Cc1ccc(-n2cc(C(=O)O)c(=O)cc2C)c(C)c1 | -35.1%
N#CCCn1cc(/C=N/O)c(-c2ccc(Cl)cc2)n1 | -14.4%
Cc1cc(=O)oc2c3c(cc(OCC(=O)N4CCC(C(=O)O)CC4)c12)OC(C)(C)CC3 | 9.46%

Compound | hERG current change (%, negative = inhibition) at 10uM
COc1ccc(CCNC(=O)C2CCCN(c3ncccn3)C2)cc1 (stereo not shown) | -10.8%
CCCC(c1nnnn1Cc1cccs1)N1CCN(C)CC1.Cl (stereo not shown) | -29.4%
COC(=O)C1=C(c2ccc(Cl)c(C(F)(F)F)c2)C[C@@H]2CC[C@H]1N2C(=O)NCCOc1ccccc1 | 11.2%
Cc1ccccc1NC(=S)NCCSc1ccc(Cl)cc1 | 6.08%
O=C(Cc1cccs1)NCc1ccc2c(c1)OCO2 | 2.41%
O=C(N/N=C/c1ccc2c(c1)OCO2)C(=O)Nc1ccccc1Cl | 7.26%
Cc1coc2c(C)c3oc(=O)c(CCC(=O)N4C[C@H]5C[C@@H](C4)c4cccc(=O)n4C5)c(C)c3cc12 | -50.6%
O=C(OCC(=O)N1CCN(S(=O)(=O)c2ccc(Cl)cc2)CC1)c1cc(Br)ccc1O | 6.4%
O=C(/C=C/c1ccccc1[N+](=O)[O-])Nc1cccnc1 | -6.87%
O=C(O)c1ccc(NS(=O)(=O)c2cc(Cl)ccc2Cl)cc1 | -1.95%
COc1cc2nc(C3CCC3)n(NC(=O)C(OC(C)=O)c3ccccc3)c(=O)c2cc1OC (stereo not shown) | 9.45%
O=C(NCCCn1ncc2ccccc21)c1cc(COc2c(F)cccc2F)on1 | 6.73%
OCCSc1c(F)c(SCCO)c(SCCO)c(F)c1SCCO | 1.25%
CCCc1c(C(=O)NNc2cccc(Cl)c2)cnn1-c1ccccc1 | -5.55%
CCCCC(=O)N1C/C=C\C(c2ccc(OC)cc2)N(Cc2ccc(F)cc2)C(=O)C1 (stereo not shown) | -30.5%
CCCCN(C)C(=O)CC(NS(=O)(=O)c1ccc(NC(C)=O)cc1)C(C)C (stereo not shown) | 9.63%
O=C1S/C(=C\c2ccc(N3CCOCC3)o2)C(=O)N1Cc1ccc(F)cc1 | 0.303%
CCC(=O)c1cc2c(C)cc(=O)oc2c(C)c1OC(=O)C(C)C | -2.05%
COc1cccc(-n2nnc3c(=O)n(Cc4ccc(F)cc4)cnc32)c1 | -3.68%
COc1ccc(CCNC(=O)CN(C2CCCCC2)S(C)(=O)=O)cc1 | 1.84%
NC1=C([N+](=O)[O-])C(c2ccc3c(c2)OCO3)c2c(c3ccccc3oc2=O)O1 (stereo not shown) | -21.3%
